Laboratory results taken from ChEMBL document CHEMBL1156829.
Whole data set: some 5,400 compounds, median “IFI” near 2, cut for the highest 2% near 22. This is one part of the list.

Assay: NOVARTIS: Inhibition Frequency Index (IFI) - the number of HTS assays where a compound showed > 50% inhibition/induction, expressed as a percentage of the number of assays in which the compound was tested.
Type: functional
Work on `CCn1c(C)cc(/C=C2\C(=O)NC(=O)N(c3cccc(Cl)c3)C2=O)c1C` yielded an IFI of 0%.
`COc1cc2c3cc1Oc1c(OC)c(OC)cc4c1C(Cc1ccc(O)c(c1)Oc1ccc(cc1)CC3N(C)CC2)N(C)CC4` (stereo not given) showed an IFI of 7.14%.
For `Cc1c2ccccc2c(C)c2ccccc12`, the IFI was 3.76%.
Work on `CCC1CN2CCc3cc(OC)c(OC)cc3C2CC1CC1NCCc2cc(OC)c(OC)cc21` (stereo not given) yielded an IFI of 33.3%.
`CC(=O)N(C1=C(N(C)C)C(=O)c2ccccc2C1=O)c1cccc(Cl)c1` gave an IFI of 7.14%.
For `CCC(=O)OC(C(C)C(=O)O)C(C)C1OC2(CCC(C)(C3CCC(C)(C4OC(C5OC(O)(CO)C(C)CC5C)CC4C)O3)O2)CC(O)C1C` (stereo not given), the IFI was 8.62%.
`S=C(Nc1ccccc1)N1CCCN(c2nc3ccc(Cl)cc3s2)CC1` gave an IFI of 5.69%.
`Cc1ccc(CN2C3CCCC2CC(NC(=O)Nc2cccc(F)c2)C3)cc1` (stereo not given) gave an IFI of 1.32%.
Molecule `C=CC1CN2CCC1CC2C(OC(C)=O)c1ccnc2ccc(OC)cc12` (stereo not given) has an IFI of 1.63%.
For `OC1(c2ccc(Cl)c(C(F)(F)F)c2)CCN(CCOC2c3ccccc3CSc3ccc(Cl)cc32)CC1` (stereo not given), the IFI was 2.38%.
With `COC(=O)c1ccc(Cn2cc(C=O)c3ccccc32)o1` the IFI was 8.33%.
`Cc1ccc(O)c(C(=O)c2c[nH]c(-c3nc4ccccc4[nH]3)c2)c1` showed an IFI of 0%.
Work on `C=C[C@H]1CN2CC[C@H]1C[C@@H]2[C@@H](OC(=O)Cc1cccs1)c1ccnc2ccccc12` yielded an IFI of 2.5%.
Molecule `Cn1ncnc2c(=O)n(C)c(=O)nc1-2` has an IFI of 26.7%.
For `O=C1CN=C(c2ccccc2Cl)c2cc(Cl)ccc2N1Cc1cccc([N+](=O)[O-])c1`, the IFI was 1.92%.
With `CNCC(O)c1ccc(Cl)c(Cl)c1` (stereo not given) the IFI was 0%.
In the case of `C[n+]1c2n(c3ccccc31)N=C(c1ccccc1)C[Se]2`, the IFI is reported as 3.7%.
Molecule `CC(C)N1CC=C(c2c[nH]c3ccccc23)CC1` has an IFI of 0%.
`CC1CC(C)CC(C)C(O)C(C#N)=CC=CCC(C2CCCC2C(=O)O)OC(=O)CC(O)C(C)C1` (stereo not given) showed an IFI of 25.8%.
Work on `C=C[C@H]1CN2CC[C@H]1C[C@@H]2[C@@H](OC(=O)C(C)C)c1ccnc2ccccc12` yielded an IFI of 1.67%.
Molecule `CCN1CC=C(c2c[nH]c3ccccc23)CC1` has an IFI of 0%.
Molecule `O=C1Nc2ccccc2Sc2ccccc21` has an IFI of 2.4%.
Molecule `C=CC1CN2CCC1CC2[C@H](O)c1ccnc2ccc(O)cc12` (stereo not given in full) has an IFI of 0%.
`C=C[C@H]1CN2CC[C@H]1C[C@H]2[C@H](OC(=O)c1ccc(F)cc1)c1ccnc2ccccc12` showed an IFI of 0.84%.
In the case of `C(=C\c1ccccc1)/CNC1CCN(Cc2ccccc2)CC1`, the IFI is reported as 14.3%.
In the case of `CCc1cc2c(cc1-c1csc(NC(=N)N)n1)C(C)(C)CCC2(C)C`, the IFI is reported as 5.16%.
In the case of `c1ccc(-c2nn(-c3ccccc3)[n+](-c3ccccc3)n2)cc1`, the IFI is reported as 11.2%.
Work on `CC[C@@]1(O)C[C@H](O[C@@H]2CC(N(C)C)[C@@H](O[C@@H]3C[C@@H](O)[C@@H](O[C@@H]4CCC(=O)[C@@H](C)O4)C(C)O3)[C@@H](C)O2)c2c(cc3c(c2O)C(=O)c2c(O)ccc(O)c2C3=O)[C@H]1C(=O)OC` (stereo not given in full) yielded an IFI of 21.4%.
With `COc1cc2c(O[C@@H]3O[C@H](CO)[C@@H](O)[C@H](O)[C@H]3O)c3c(c(-c4ccc5c(c4)OCO5)c2cc1OC)C(=O)OC3` the IFI was 12.4%.
With `CNC1CC2OC(C)(C1OC)n1c3ccccc3c3c4c(c5c6ccccc6n2c5c31)C(=O)NC4O` (stereo not given) the IFI was 28.6%.
In the case of `CCC(C)(O)C(=O)O[C@H]1C(=O)OC2CC3C(C)=C[C@H](O)[C@@H](O)[C@]3(C)C3C24CO[C@]3(O)[C@H](O)[C@H](C)C14` (stereo not given in full), the IFI is reported as 7.69%.
`CC[C@H]1CN2CCc3cc(OC)c(OC)cc3[C@@H]2C[C@@H]1C[C@H]1NCCc2cc(OC)c(OC)cc21` showed an IFI of 23.8%.
`COc1ccc(Cn2cccc(C(=O)Nc3ccc(OC)cc3)c2=O)cc1` gave an IFI of 5.26%.
`C[C@@H]1CC[C@H]2[C@@H](C)C(=O)O[C@@H]3O[C@@]4(C)CC[C@@H]1[C@]32OO4` showed an IFI of 3.19%.
Work on `O=C1Cc2ccccc2C(=C2CCNCC2)c2ccsc21` yielded an IFI of 0%.
`c1cncc(CCNc2nccn3c(-c4ccc5ccccc5c4)cnc23)c1` showed an IFI of 0%.
Molecule `COc1ccc(C[C@H]2NC[C@H](O)[C@H]2OC(C)=O)cc1` has an IFI of 33.6%.
`C=C[C@H]1CN2CC[C@H]1C[C@@H]2[C@@H](OC(=O)CC)c1ccnc2ccccc12` gave an IFI of 1.02%.
With `CCOC(=O)c1ccc2nc(C)cc(Nc3ccc(N4CCCCC4)cc3)c2c1` the IFI was 1.12%.
For `O=C1C(Nc2ccc(F)cc2)=C(N2CCCCC2)C(=O)c2ccccc21`, the IFI was 12.5%.
With `Cn1ccnc1C(=O)NNc1ncc(C(F)(F)F)cc1Cl` the IFI was 13.3%.
For `Cc1nc2c(=O)n(C)c(=O)nc-2n(C)n1`, the IFI was 25%.
In the case of `C=CC1CN2CCC1C(C(O)c1ccnc3ccc(OC)cc13)C2` (stereo not given), the IFI is reported as 2.29%.
Molecule `CCN1C(=O)N(CC(N)=O)C(=O)C12CCN(Cc1ccc(N(C)c3ccccc3)cc1)CC2` has an IFI of 3.85%.
`C=CC1CN2CCC1CC2C(OC(=O)C1CC1)c1ccnc2ccccc12` (stereo not given) showed an IFI of 0%.
`CCOC(=O)c1c(CN2CCN(CC#N)CC2)n(Cc2ccccc2)c2cc(Br)c(O)cc12` showed an IFI of 2.27%.
For `CCCCCCCCCCCCn1ccc(=N)cc1`, the IFI was 15.4%.
`CC[n+]1c(/C=C/c2ccc(SC)cc2)ccc2ccccc21` showed an IFI of 8.42%.
For `Cc1nc(Oc2ccc3ccc(=O)oc3c2)c2c3c(sc2n1)CCCCC3`, the IFI was 0%.
Molecule `O=C(Nc1ccc(SC(F)(F)F)cc1)Nc1cccnc1N1CCC(C(F)(F)F)CC1` has an IFI of 7.34%.
Work on `COc1cc2c3c(c4cc(OC)c(OC)cc4c2cc1OC)CN1CCC[C@@H]1C3` yielded an IFI of 5.26%.
Work on `O=[N+]([O-])c1cc(C(F)(F)F)ccc1N1CCCN(C(=S)Nc2cccc(C(F)(F)F)c2)CC1` yielded an IFI of 2.63%.
In the case of `CCCCCCn1c(=O)c(C(=O)NCC[N+](CC)(CC)CC)c(O)c2ccccc21`, the IFI is reported as 5.46%.
In the case of `CC1OC(=O)C(C(C)C)NC(=O)C(C(C)C)OC(=O)C(C(C)C)NC(=O)C(C)OC(=O)C(C(C)C)NC(=O)C(C(C)C)OC(=O)C(C(C)C)NC(=O)C(C)OC(=O)C(C(C)C)NC(=O)C(C(C)C)OC(=O)C(C(C)C)NC1=O` (stereo not given), the IFI is reported as 27.7%.
Work on `O=C(Nc1ccc(Oc2ccc(OC(F)(F)F)cc2)cc1)C1CC1` yielded an IFI of 1.57%.
For `O=C(NNC(=O)c1csnn1)c1ccc(C(F)(F)F)cc1`, the IFI was 3%.
Molecule `CCCc1cc(O)c2c3c(c(=O)oc2c1)CN(C)CC3` has an IFI of 0%.
Molecule `CC(Cc1ccccc1)NCCCCCCCNC(C)Cc1ccccc1` (stereo not given) has an IFI of 1.85%.
`Cc1onc(O)c1CC(N)C(=O)O` (stereo not given) gave an IFI of 0%.
For `CCCCCc1cc(O)c2c3c(c(=O)oc2c1)CN(C)CC3`, the IFI was 2.29%.
In the case of `OCCC1CN(Cc2cccc(Cl)c2)CCN1Cc1ccccc1` (stereo not given), the IFI is reported as 7.69%.
For `COc1cc(OC)c(OC)cc1CN1CCN(C(C)C)CC1`, the IFI was 0%.
In the case of `CC(=O)N(C1=C(N(C)C)C(=O)c2ccccc2C1=O)c1cccc(F)c1`, the IFI is reported as 15.4%.
For `C=C[C@H]1CN2CC[C@H]1C[C@@H]2[C@@H](O)c1ccnc2ccccc12`, the IFI was 4.69%.
`C/C(=C\c1csc(C)n1)[C@@H]1C[C@@H]2O[C@]2(C)CCC[C@H](C)[C@H](O)[C@@H](C)C(=O)C(C)(C)[C@@H](O)CC(=O)O1` showed an IFI of 4.69%.
`Oc1ccc(-c2ccnc3cc(Cl)ccc23)cc1CNC1CN2CCC1CC2` (stereo not given) gave an IFI of 0.855%.
Molecule `C=CC1CN2CCC1CC2C(OC(=O)c1ccco1)c1ccnc2ccccc12` (stereo not given) has an IFI of 0%.
With `CC(=O)O[C@]1(C(C)=O)CCC2C3C=CC4=CC(=O)CC[C@]4(C)C3CC[C@@]21C` (stereo not given in full) the IFI was 2.33%.
With `COc1cc(CN2CC3CC(C2)c2cccc(=O)n2C3)ccc1O` (stereo not given) the IFI was 0%.
For `O=C(Nc1ccc(Cl)cc1)Oc1ccccc1`, the IFI was 4.8%.
`CCCCCCc1cc(O)c2c3c(c(=O)oc2c1)CCC(C)C3` (stereo not given) gave an IFI of 7.25%.
In the case of `COc1ccccc1/C=C/CN(CCN1CCN(S(=O)(=O)c2cccc(C(F)(F)F)c2)CC1)C(=O)Cc1ccccc1`, the IFI is reported as 0.926%.
Work on `CN1C[C@@H](CSc2ccccn2)C=C2c3cccc4[nH]cc(c34)C[C@H]21` yielded an IFI of 4.88%.
With `C=C[C@H]1CN2CC[C@H]1C[C@@H]2[C@@H](OC(=O)CCCCl)c1ccnc2ccccc12` the IFI was 0%.
With `CO/C(=C\C(N)=O)C(C)C(/C=C/c1csc(-c2csc(C(C)/C=C/C=C/C(C)C)n2)n1)OC` (stereo not given) the IFI was 11.5%.
Work on `CCOC(=O)c1c(S(=O)(=O)Nc2ccc(C(C)(C)C)cc2)c(-c2ccccc2)n(-c2ccccc2)c1C` yielded an IFI of 3.09%.
`Cc1ccn2c(NC(C)(C)CC(C)(C)C)c(-c3ccccc3OC(=O)Cc3ccccc3)nc2c1` showed an IFI of 3.74%.
With `Cc1n(-c2ccccc2)c2c([n+]1C)C(=O)c1ccccc1C2=O` the IFI was 33.3%.
Molecule `CCOC(=O)c1c(C)n(Cc2ccccc2)c2c1cc(O)c1c2c(-c2ccccc2)nn1-c1ccccc1` has an IFI of 0%.
Work on `FC(F)(F)c1cccc(Nc2nnnc3ccccc23)c1` yielded an IFI of 1.3%.
Work on `CCCCCCCc1cc(O)c2c3c(c(=O)oc2c1)CCC(C)C3` (stereo not given) yielded an IFI of 0%.
For `N#CC1=C(N)Oc2c(c(=O)oc3ccccc23)C1c1ccoc1` (stereo not given), the IFI was 3.45%.
`CCOC(=O)CC(C)(O)P(=O)(OC)OC` (stereo not given) gave an IFI of 0%.
`Nc1ccc(C(=O)NN=Cc2cccc([N+](=O)[O-])c2)cc1` showed an IFI of 0%.
With `C=C1[C@@H](C)[C@H]2[C@H](Cc3ccccc3)NC(=O)[C@]23C(OC(C)=O)C=C[C@@](C)(O)C(=O)[C@@H](C)CC=C[C@H]3[C@@H]1O` (stereo not given in full) the IFI was 6.9%.
`CC1CC2CCC(O2)C(C)C(=O)O[C@H](C)CC2CCC(O2)C(C)C(=O)OC(C)CC2CCC(O2)C(C)C(=O)O[C@H](C)CC2CCC(O2)C(C)C(=O)O1` (stereo not given in full) gave an IFI of 19.2%.
Work on `CC[C@H]1CN2CCc3cc(OC)c(OC)cc3[C@@H]2C[C@@H]1C[C@H]1NCCc2cc(O)c(OC)cc21` yielded an IFI of 32.3%.
`CN(C)c1ccc(/C=C2\C(=O)NC(=O)N(Cc3ccccc3Cl)C2=O)cc1` gave an IFI of 0%.
In the case of `CC(C)[C@@]1(NC(=O)[C@@H]2C[C@@H]3c4cccc5[nH]cc(c45)C[C@H]3N(C)C2)O[C@@]2(O)[C@@H]3CCCN3C(=O)[C@H](CC3CCCCC3)N2C1=O`, the IFI is reported as 9.52%.
`CO[C@H]1[C@H](C)[C@@H]([C@H]2CC[C@H]([C@@H]3CC[C@H]([C@@]4(C)O[C@]5(O[C@H](C[C@@H]6O[C@](O)([C@@H](C)C(=O)O)[C@@H](C)[C@H](O[C@H]7CC[C@H](OC)[C@@H](C)O7)[C@@]6(C)OC)C[C@@H](OC)[C@H]5C)[C@H](C)[C@H]4OC)O3)O2)O[C@](C)(O)[C@@H]1C` showed an IFI of 15.5%.
